# According to PubChem BioAssay AID624296 (National Center for Advancing Translational Sciences (NCATS), 2012):
# Out of some 350,000 compounds screened, about 9,900 (2.8%) were called active. The shares of active, inactive and inconclusive entries below differ from those in the screen. Calls come from the whole dose curve; as a rule, active = well fitted activation curve with a large enough effect; inconclusive = small, poorly fitted or top-dose-only effect; inactive = no such curve, though single readings can be large or run the other way. Potencies of inconclusive entries are left out as doubtful fits.
# Assay: A quantitative high throughput screen for small molecules that induce DNA re-replication in MCF 10a normal breast cells. For activity, positive = re-replication: % of control where 0% means no effect. Note: nearly all actives have a fitted effect of over 50% in size.
# Details: MCF 10A DNA re-replication, Hoechst nuclear intensity, 48 h; activity, positive = re-replication: at 46.1 µM (top of the series)
# Text: H Molecular Libraries Probe Production Network [MLPCN]
# NIH Chemical Genomics Center [NCGC]
# Assay Provider: Melvin DePamphilis, NICHD, NIH
# Eukaryotic cells normally restrict genome duplication to once per cell division. When this process is aberrant, DNA re-replication occurs when cells reinitiate DNA replication before the first round of replication is complete. DNA re-replication induces the DNA damage response, arrests cell proliferation, and triggers apoptosis. The cell cycle components cyclin A, Cdt-1, Cdc6 and geminin are critical regulators of this process and their misregulation results in DNA re-replication in normal and cancer cells. To identify compounds that induce re-replication in normal cells, an image-based assay was used to measure DNA content of nuclei, as detected by the fluorescent DNA binding dye, Hoechst. Cell nuclei were imaged by a fluorescence scanning plate imager and compounds that induce DNA re-replication were identified by the increase of nuclei with elevated fluorescence intensity
# For screening, 250 cells in 5 uL/well were dispensed into black clear 1536-well plates (Aurora) using a solenoid-based dispenser. Following transfer of 23 nL compound or DMSO vehicle by a pin tool, the plates were incubated 48 hr at 37 C and 5% CO2. After addition of 1 uL/well Hoescht stain, the plates were incubated 40 min at 37 C, 5% CO2 and total intensity of fluorescent objects (nuclei) were enumerated by an Acumen Explorer Ex3 (TTP LabTech) fluorescence scanning plate imager (405 nm excitation, 500-530 nm emission).
# Keywords: NIH Roadmap, MLPCN, MLI, MLSMR, qHTS, NCGC, DNA replication, cancer
# Potency is the fitted concentration of half-maximal effect; tags give direction and shape of the fitted curve.
Compound,"activity, positive = re-replication",Potency
COc1ccc(CCNCc2ccc(F)cc2)cc1OC,inactive: 5.26%,
COC(=O)C1=C(c2cc3ccccc3o2)C[C@@H]2CC[C@H]1N2C(=O)N1CCOCC1,,"inconclusive [activator, partial curve, poor fit]"
CCCCCn1c(=O)c(C(=O)Nc2ccccc2C)c(O)c2ccccc21,inactive: -1.65%,
CCC(C)NC(=O)c1c(N)n(CC2CCCO2)c2nc3ccccc3nc12 (centres undefined),,"inconclusive [activator, partial curve, poor fit]"
COc1ccc(-n2nc(C(=O)NCC(=O)N3CCC4(CC3)OCCO4)c3ccccc3c2=O)c(OC)c1,inactive: -11%,
c1ccc(C(c2ccccc2)N2CCN(c3ccc4ccccc4n3)CC2)cc1,,"inconclusive [activator, single point]"
CC[C@H](C)[C@@H](C(=O)N1CCCC1c1nccs1)N(C)C(=O)[C@H](CC(C)C)N(C)C(=O)[C@H](Cc1ccc(OC)cc1)N(C)C(=O)/C=C(\C)OC (some centres undefined),,"inconclusive [activator, single point]"
COC(=O)C1=C(c2cccc(C#N)c2)C[C@@H]2CC[C@H]1N2C(=O)NC1Cc2ccccc2C1,,"inconclusive [activator, partial curve, poor fit]"
C#CC(C)(O)CC (centres undefined),inactive: 11.2%,
CNS(=O)(=O)c1ccc(N=Cc2c(O)n(-c3cccc(C)c3)c(=O)[nH]c2=O)cc1,inactive: -17.3%,
CC12CCC3C(CC=C4CC(O)CCC43C)C1C/C(=C\c1ccccc1F)C2=O (centres undefined),,active: 6.51 µM
CO[C@@H]1C=CC23c4cc5c(cc4CO[C@]2(O)CN(C)[C@H]3C1)OCO5 (some centres undefined),,"inconclusive [activator, single point]"
COc1ccc(CN2Cc3cnnn3-c3ccccc3C2C#N)cc1 (centres undefined),,active: 3.26 µM
S=P(N1CCCCCC1)(N1CC1)N1CC1,,"inconclusive [activator, partial curve, poor fit]"
COC1CC(C)C(OC)c2cc(O)cc(c2O)NC(=O)C(C)=CC=CC(C)C(OC(N)=O)C(C)=CC(C)C1OC (centres undefined),,active: 5.8 µM
O=C(c1ccccc1F)c1cn(Cc2ccc(F)cc2)c2ccccc12,inconclusive: 59% [activator],
COc1ccc(CCNC(C)CCc2ccc(OC)cc2)cc1 (centres undefined),inactive: -13.1%,
Clc1ccc(C(c2ccc(Cl)cc2)C(Cl)(Cl)Cl)cc1,,"inconclusive [activator, partial curve]"
COc1ccc(N2C(=O)NC(=O)/C(=C\c3ccc([N+](=O)[O-])s3)C2=O)cc1,,"inconclusive [activator, single point]"
Cn1c(C(=O)N2CCC(C(=O)N3CCC4(CC3)OCCO4)CC2)cc2sccc21,,"inconclusive [activator, single point]"
COc1ccc(CCNC(=O)c2c(N)n(CCN3CCOCC3)c3nc4ccccc4nc23)cc1,,"inconclusive [activator, full curve, poor fit]"
O=C1NC(=O)C(Cc2ccccc2)(Cc2ccccc2)C(=O)N1Cc1ccccc1,,"inconclusive [activator, single point]"

Compound,"activity, positive = re-replication",Potency
COC(=O)C(C)Oc1cc(C)cc2oc(=O)c3c(c12)CCCC3 (centres undefined),inactive: 16.5%,
CCCCn1c(O)c(/C(C)=N/NC(=O)Nc2ccccc2)c(=O)[nH]c1=O,,"inconclusive [activator, single point]"
COc1ccc(OC)c(NP(=O)(Oc2ccccc2)Oc2ccccc2)c1,inactive: 0.263%,
COc1ccc(OCC(=O)N2CCN(Cc3c[nH]c4ccccc34)CC2)cc1,inactive: 15.2%,
CN(C)[C@@H]1C(=O)C(C(N)=O)=C(O)[C@@]2(O)C(=O)C3=C(O)c4c(O)cccc4[C@@](C)(O)C3[C@H](O)C12 (some centres undefined),,"inconclusive [activator, full curve, poor fit]"
Cc1cccc(OP(=O)(NCc2ccccc2)Oc2cccc(C)c2)c1,,"inconclusive [activator, single point]"
CCCCOC(=O)COc1cc(C)cc2oc(=O)c3c(c12)CCC3,,"inconclusive [activator, partial curve, poor fit]"
O=C(CN1CCCCC1)c1ccc2c(c1)OCO2,,"inconclusive [activator, single point]"
COCCCn1c(-c2ccc(OC)cc2)cc(C(=O)NC2CCCCCCC2)c1C,,"inconclusive [activator, single point]"
CCC1(O)C(=O)OCc2c1cc1n(c2=O)Cc2cc3cc(O)ccc3nc2-1 (centres undefined),,"inconclusive [activator, full curve, poor fit]"
O=C(CNC(=O)c1cccc(Cl)c1)Nc1ccc(Br)cc1C(=O)c1ccccc1,,"inconclusive [activator, partial curve, poor fit]"
CCC(=O)OC1(c2ccccc2)CCN(C)CC1C (centres undefined),,inactive
NC1=Nc2ccccc2Oc2ccccc21,,"inconclusive [activator, single point]"
COc1ccc2c(c1OC)C[N+]1([O-])CCc3cc4c(cc3C1C2)OCO4 (centres undefined),inactive: -21.3%,
c1ccc2nc3ccccc3nc2c1,,"inconclusive [activator, single point]"
O=C(CCN1CCN(c2ccccc2)CC1)c1ccc(Br)cc1,,"inconclusive [activator, partial curve, poor fit]"
CC1([N+](=O)[O-])COP(=O)(Nc2ccc(F)cc2)OC1 (centres undefined),inactive: 0.716%,
Cc1cccc(-n2c(O)c(/C=N/NC(=O)c3ccncc3)c(=O)[nH]c2=O)c1,,"inconclusive [activator, full curve, poor fit]"
COc1ccc(CN2CCN(c3ccccc3)CC2)c(C)c1C,,"inconclusive [activator, partial curve, poor fit]"
CC(=O)OC1C[C@H](O[C@@H]2C(O)C[C@H](O[C@@H]3C(O)C[C@@H](OC4CC[C@]5(C)C(CCC6C5CC(O)[C@@]5(C)C(C7=CC(=O)OC7)CC[C@@]65O)C4)OC3C)OC2C)O[C@H](C)[C@H]1O[C@H]1OC(CO)C(O)C(O)C1O (some centres undefined),,active: 0.119 µM
O=C1NC(=O)N(Cc2ccccc2)C(=O)/C1=C\C=C\c1ccco1,,active: 11.6 µM
COc1ccc2[nH]c(C)c(CCNCc3cccnc3)c2c1,inactive: 1.31%,

Compound,"activity, positive = re-replication",Potency
CCOc1c(Cl)cc(CNCCc2c[nH]c3ccccc23)cc1OC,,active: 18.4 µM
CCN(CC)c1ccc(N=Cc2c(O)n(CCC3=CCCCC3)c(=O)[nH]c2=O)cc1,,"inconclusive [activator, full curve]"
CCOP(=O)(OCC)c1nc(-c2cccc3ccccc23)oc1N1CCOCC1,,"inconclusive [activator, partial curve, poor fit]"
OC(CCCN1CCC(O)(c2ccc(Cl)cc2)CC1)c1ccc(F)cc1 (centres undefined),,"inconclusive [activator, single point]"
CN(C)c1ccc(C(=O)c2ccc(N(C)C)cc2)cc1,,active: 6.51 µM
CCOC(=O)C1=C(N)Oc2cc(C)oc(=O)c2C12C(=O)N1c3c(cccc32)C(C)CC1(C)C (centres undefined),,"inconclusive [activator, full curve, poor fit]"
Clc1ccc(C[n+]2c(-c3ccccc3)cc(-c3ccccc3)cc2-c2ccccc2)cc1,,"inconclusive [activator, partial curve, poor fit]"
COc1cccc(C(C(=O)NCc2ccco2)N(Cc2ccco2)C(=O)Cn2nnc3ccccc32)c1 (centres undefined),,"inconclusive [activator, single point]"
CC(C)=CC1C(C(=O)OCc2coc(Cc3ccccc3)c2)C1(C)C (centres undefined),,"inconclusive [activator, partial curve, poor fit]"
O=C(NC1(C(F)(F)F)Oc2ccccc2O1)N1CCC2(CC1)OCCO2,,"inconclusive [activator, single point]"
CC(=O)C1C(N2CC2)CC2C3CC=C4CC(O)CCC4(C)C3CCC21C (centres undefined),,active: 4.61 µM
O=C(COc1ccccc1)c1cn(Cc2ccccc2)c2ccccc12,,"inconclusive [activator, single point]"
COc1cc2c(cc1O)C[C@H]1c3c(cc(O)c(OC)c3-2)CCN1C,,"inconclusive [activator, full curve, poor fit]"
COC(=O)[C@@H](Cc1ccccc1)N(Cc1ccccc1)S(=O)(=O)N(Cc1ccccc1)[C@H](Cc1ccccc1)C(=O)OC,,"inconclusive [activator, single point]"
O=C1NC(=O)N(Cc2ccco2)C(=O)/C1=C\c1ccc(-c2ccc(F)cc2)o1,,"inconclusive [activator, full curve, poor fit]"
NC(N)=N/N=C/c1cn(-c2ccccc2)nc1-c1cccs1,,active: 7.31 µM
COC(=O)C1=C(c2ccc(OCc3ccccc3)cc2)C[C@@H]2CC[C@H]1N2C(=O)NCc1cccc(C(F)(F)F)c1,,"inconclusive [activator, single point]"
C[C@H]1OC[C@@H](C[N+](C)(C)C)O1,,"inconclusive [activator, full curve, poor fit]"
O=C(C(=C1N(Cc2ccc(Cl)nc2)CCN1Cc1ccc(Cl)nc1)[N+](=O)[O-])C(Cl)Cl,,"inconclusive [activator, single point]"
COc1ccc(C2CC(c3cccs3)=NN2c2nc(C)c(C(C)=O)s2)cc1OC (centres undefined),,active: 3.26 µM
